Screen size: about 360,000 compounds; about 520 (0.14%) were called active. The inconclusive results got no clear call from the source; some entries with a clear call stand among them for comparison. Calls follow the shape of the dose curve; as a rule, active = well fitted inhibition curve with a large enough effect; inconclusive = small, poorly fitted or top-dose-only effect; inactive = no such curve, though single readings can be large or run the other way. Potencies of inconclusive entries are left out as doubtful fits.
What follows are compounds tested against Rap guanine nucleotide exchange factor 3 (Homo sapiens) (UniProt O95398) (assay: qHTS for Antagonist of cAMP-regulated guanine nucleotide exchange factor 3 (EPAC1): primary screen). Settings: EPAC1 GEF assay, Rap1b-BODIPY-GDP exchange fluorescence; activity change, negative = inhibition: at 115 µM (top of the series).
Chain of UniProt O95398 (O95398 whole entry, looked up): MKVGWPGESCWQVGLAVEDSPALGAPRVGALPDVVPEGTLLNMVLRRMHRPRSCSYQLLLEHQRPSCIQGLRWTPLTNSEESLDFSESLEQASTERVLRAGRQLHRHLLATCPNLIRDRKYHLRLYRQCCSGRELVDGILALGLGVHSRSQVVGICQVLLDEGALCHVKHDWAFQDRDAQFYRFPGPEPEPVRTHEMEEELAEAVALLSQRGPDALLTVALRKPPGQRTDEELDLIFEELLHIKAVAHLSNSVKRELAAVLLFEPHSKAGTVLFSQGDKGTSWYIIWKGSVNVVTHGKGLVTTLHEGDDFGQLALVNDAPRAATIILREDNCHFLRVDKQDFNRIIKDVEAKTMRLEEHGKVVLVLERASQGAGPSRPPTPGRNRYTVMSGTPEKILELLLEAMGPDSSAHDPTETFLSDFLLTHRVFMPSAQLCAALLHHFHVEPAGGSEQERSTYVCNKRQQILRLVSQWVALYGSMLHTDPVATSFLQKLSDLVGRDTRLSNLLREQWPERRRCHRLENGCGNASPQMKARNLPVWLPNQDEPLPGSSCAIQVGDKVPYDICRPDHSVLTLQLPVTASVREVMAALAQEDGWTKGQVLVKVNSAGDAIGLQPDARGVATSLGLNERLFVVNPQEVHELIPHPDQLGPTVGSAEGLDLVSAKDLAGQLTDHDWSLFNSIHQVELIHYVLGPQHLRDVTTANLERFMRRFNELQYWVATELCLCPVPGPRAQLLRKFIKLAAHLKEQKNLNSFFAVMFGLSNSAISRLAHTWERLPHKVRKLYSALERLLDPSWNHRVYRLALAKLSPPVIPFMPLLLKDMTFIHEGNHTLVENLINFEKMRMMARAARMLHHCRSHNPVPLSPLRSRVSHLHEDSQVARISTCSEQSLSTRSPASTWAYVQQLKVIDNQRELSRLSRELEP
Also: nearly all actives have a fitted effect of over 50% in size.
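For activity change, negative = inhibition in this document: plate controls were vehicle for no effect and positive control for full effect.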
Potency is read from the fitted curve at half-maximal effect; tags tell the direction and shape of the fitted curve.

SMILES	Potency	activity change, negative = inhibition
CC(C)(C)c1nnc2sc(SCC(O)=C(C#N)c3nc4ccccc4[nH]3)nn2c1=O	inconclusive [inhibitor, single point]	
Cc1cc(=O)oc2cc(OCC(=O)NCCCN3CCOCC3)c(Cl)cc12	inconclusive [inhibitor, partial curve]	
COc1cc(NC(=O)CNC(c2ccccc2)c2ccccc2)cc(OC)c1OC	inconclusive [inhibitor, single point]	
CN(C)C(=O)CNc1ccn2nc(-c3cccc(Cl)c3)cc2n1		inactive: -9.76%
CC1=CC2=C(C=O)C(=O)C(C)(O)C(O)C2=CO1 (stereo unspecified)	inconclusive [inhibitor, partial curve]	
[N-]=[N+]=NC(c1ccccc1)C(NC(=O)c1cc(C(F)(F)F)cc(C(F)(F)F)c1)c1ccccc1 (stereo unspecified)		inactive: -8%
Clc1ccc(OCCCN2CCCCC2)c(Br)c1		inactive: 4.4%
CCOc1ccc(C(=O)c2nc3c(n2O)CCCC3)cc1		inactive: -11.8%
CCCCNC(=O)c1onc(CSc2cccc3ccccc23)c1C(=O)O	inconclusive [inhibitor, single point]	
C/C(=N\NC(=O)c1cc2ccccc2cc1O)c1ccccn1	inconclusive [inhibitor, partial curve]	
c1ccc2sc(NC3=NCN(C4CCCCCC4)CN3)nc2c1	inconclusive [inhibitor, single point]	
N#Cc1c(-c2ccco2)ccn(Cc2ccc(F)cc2)c1=O	inconclusive [inhibitor, single point]	
CCCC(=O)C1=C(O)C(C(=O)OC)C(C)(C)CC1=Nc1cccc([N+](=O)[O-])c1 (stereo unspecified)	inconclusive [inhibitor, full curve, poor fit]	
BrC(=C\c1ccccc1)/C=N/N1CCN(c2ccccc2)CC1	inconclusive [inhibitor, full curve, poor fit]	
CCC(C(=O)NC(C)(C)C)N(C(=O)Cn1nnc(-c2ccccc2F)n1)c1cnc2ccccc2c1 (stereo unspecified)	inconclusive [inhibitor, partial curve]	
COc1cc(NC(=O)CN2C(=O)COc3ccc(S(=O)(=O)N4CCCC4)cc32)cc(OC)c1	inconclusive [inhibitor, partial curve]	
Cc1nc2sc(C(c3ccc(Br)cc3)N3CC(C)OC(C)C3)c(O)n2n1 (stereo unspecified)		inactive: 2.97%
CN1/C(=C/C(=S)NC(=O)C2CCC2)C(C)(C)c2ccccc21		inactive: 0.0451%
COc1ccc(CN2CCN(c3ncccn3)CC2)c(C)c1C	inconclusive [inhibitor, partial curve, poor fit]	
O=C(NCCCN1CCN(CCCNC(=O)c2cccc(Cl)c2)CC1)c1cccc(Cl)c1		inactive: 8.31%
O=C(NNC(=O)c1ccccc1O)c1ccc(NS(=O)(=O)c2ccc(F)cc2)cc1	inconclusive [inhibitor, single point]	
Cc1ccc(N2CSC3=C(C#N)C(c4cccs4)CC(=O)N3C2)cc1 (stereo unspecified)		inactive: -22.5%

SMILES	Potency	activity change, negative = inhibition
Cc1cccc(N(CC(=O)Nc2ccccc2-c2ccccc2)S(=O)(=O)c2ccccc2)c1C	inconclusive [inhibitor, partial curve]	
O=C(NCC1CCN(Cc2ccc(Cl)cc2)CC1)C1CCCN(c2ncnc3c2nc2n3CCCCC2)C1 (stereo unspecified)	inconclusive [inhibitor, full curve, poor fit]	
O=C1N/C(=N/NC(=O)c2cccc3ccccc23)S/C1=C\c1ccccc1OCc1ccccc1	inconclusive [inhibitor, partial curve]	
Cc1ccc(NC(=O)C(=O)c2cn(CC(=O)N3CCCCC3)c3ccccc23)cc1	inconclusive [inhibitor, partial curve]	
Cc1ccc(N2CC(C(=O)N3CCC(C(=O)NC(C)(C)C)CC3)CC2=O)cc1 (stereo unspecified)	inconclusive [inhibitor, single point]	
COc1ccc(NC(=O)COC(=O)CCc2ccc(S(=O)(=O)N3CCOCC3)cc2)cc1Cl	inconclusive [inhibitor, full curve, poor fit]	
Cc1ccc(C)c(S(=O)(=O)/N=C2\C=C(NS(=O)(=O)c3ccccc3)C(=O)c3ccccc32)c1		inactive: 10%
Cn1c(CNC(=O)c2ccc(F)cc2)cc2ccccc21	inconclusive [inhibitor, partial curve, poor fit]	
Cc1ccc(SCCC(=O)OCC(=O)NCC2CCCCC2)cc1	inconclusive [inhibitor, full curve, poor fit]	
CCN1CCN(c2ccc(S(=O)(=O)N3CCCCC3)cc2NC(=O)c2cccc(C(F)(F)F)c2)CC1	inconclusive [inhibitor, full curve, poor fit]	
COc1ccc(-c2cc(C(=O)Nc3ccc(S(=O)(=O)Nc4onc(C)c4C)cc3)c3ccccc3n2)cc1	inconclusive [inhibitor, single point]	
O=c1[nH]c(NCCO)nnc1Cc1ccc(Cl)cc1	inconclusive [inhibitor, single point]	
CCn1c2ccccc2c2cc(/C=N/O)ccc21	inconclusive [inhibitor, single point]	
COc1ccc(C(=O)NCC(=O)N/N=C/c2cccnc2)cc1OC	inconclusive [inhibitor, partial curve]	
Cc1ccc(S(=O)(=O)N[C@@H](Cc2ccccc2)C(=O)CCl)cc1	inconclusive [inhibitor, single point]	
CCn1cc(CN2CCC(C(=O)Nc3cccc(-c4cccc(F)c4)c3)CC2)cn1	inconclusive [inhibitor, partial curve]	
CCC(=O)Nc1ccc(C(=O)Nc2cccc(C)n2)cc1		inactive: 15.1%
COCCCNC(=O)c1ccc(CS(=O)(=O)c2ccc(OC)cc2)o1	inconclusive [inhibitor, single point]	
CC(=O)N/N=C/c1ccc(OCCOc2ccc(Br)cc2)cc1		inactive: -16.6%
CCn1c(-c2cc(-c3ccc(C)cc3)nc3ccccc23)n[nH]c1=S		inactive: -2.58%
CC1=C(C)CC(C(=O)NCCc2ccc(F)cc2)C(C(=O)O)C1 (stereo unspecified)	inconclusive [inhibitor, single point]	
CCC[C@@H]1C=C(C(=O)OCC)[C@H](c2ccccc2)N1S(=O)(=O)c1ccc(C)cc1	inconclusive [inhibitor, single point]	

SMILES	Potency	activity change, negative = inhibition
CC(=O)Nc1ccc(Nc2nnc(-c3ccc(O)cc3)c3ccccc23)cc1	inconclusive [inhibitor, partial curve]	
CC1CCCN(c2nc(N(C)c3ccccc3)nc(N)c2[N+](=O)[O-])C1 (stereo unspecified)	inconclusive [inhibitor, partial curve]	
CC(=O)Oc1cc(O)c2c(=O)c(OC(C)=O)c(-c3ccc(OC(C)=O)c(OC(C)=O)c3)oc2c1	inconclusive [inhibitor, full curve]	
Cc1c(C)c2ccc(OCC(=O)NCCN3CCOCC3)c(C)c2oc1=O		inactive: -29.2%
O=C(c1csc2c1CCCC2)N1CCN(c2cccc(C(F)(F)F)c2)CC1	inconclusive [inhibitor, single point]	
Cc1c[nH]c2cccc(OCC(O)CNC(C)(C)C)c12 (stereo unspecified)		inactive: -2.8%
CC(C)NC(C(=O)Nc1cc(Cl)cc(Cl)c1)c1ccccc1 (stereo unspecified)	inconclusive [inhibitor, full curve, poor fit]	
Clc1ccc(-n2nnc(-c3cccnc3Cl)n2)cn1		inactive: -18.6%
CCc1ccc(S(=O)(=O)NCC(O)COc2ccc(OC)cc2)cc1 (stereo unspecified)	inconclusive [inhibitor, single point]	
Cc1ccc(C2NC(=O)c3c(sc(C)c3C)N2)c(O)c1 (stereo unspecified)		inactive: -7.97%
CCc1ccc(-n2c(SCC(=O)Nc3cc(C)[nH]n3)nc3[nH]ncc3c2=O)cc1		inactive: 16%
COCCCNc1nc2nonc2nc1N1CCN(Cc2cccc(C)c2)CC1	inconclusive [inhibitor, partial curve]	
O=C(C1=C(O)C(=O)N(c2nc3ccc(Cl)cc3s2)C1c1ccco1)c1ccco1 (stereo unspecified)	inconclusive [inhibitor, partial curve]	
CNc1ccc(Br)cc(C(=O)/C=C/c2cc(OC)ccc2OC)c1=O	inconclusive [inhibitor, partial curve, poor fit]	
COC(=O)C(C(C)C)N1CCc2c(C)nc3c(C#N)cnn3c21 (stereo unspecified)	inconclusive [inhibitor, single point]	
O=C(NNC1=C(C(=O)C(F)(F)F)CCC1)c1cccnc1	inconclusive [inhibitor, partial curve]	
CCCCC(CCC(=O)NNC(=O)Cc1ccccc1)C(=O)O (stereo unspecified)	inconclusive [inhibitor, full curve, poor fit]	
COc1cccc(C(=O)Nc2nnc(S(=O)(=O)Nc3cccc(C)c3)s2)c1	inconclusive [inhibitor, single point]	
Cc1nc(N)c(C#N)c(-c2ccccc2)c1C		inactive: -15%
O=C1NN(c2ccccc2)C(=O)/C1=C\c1coc2ccc(O)cc2c1=O	inconclusive [inhibitor, single point]	
CC(/C=N/n1c(-c2cc(C)[nH]n2)n[nH]c1=S)=C\c1ccco1	inconclusive [inhibitor, single point]	
Cc1ccccc1C1NC(c2ccccc2C)C([N+](=O)[O-])C(C)(C)C1[N+](=O)[O-] (stereo unspecified)	inconclusive [inhibitor, full curve, poor fit]	
